# Test results as given in the BET-seq Pho4 binding data (Le et al. 2018).
# Some of the results follow. Values were computed here from the reads of four pooled replicates and scatter widely.
# Target: T1, Pho4 (S. cerevisiae) (UniProt P07270)
# T1 sequence: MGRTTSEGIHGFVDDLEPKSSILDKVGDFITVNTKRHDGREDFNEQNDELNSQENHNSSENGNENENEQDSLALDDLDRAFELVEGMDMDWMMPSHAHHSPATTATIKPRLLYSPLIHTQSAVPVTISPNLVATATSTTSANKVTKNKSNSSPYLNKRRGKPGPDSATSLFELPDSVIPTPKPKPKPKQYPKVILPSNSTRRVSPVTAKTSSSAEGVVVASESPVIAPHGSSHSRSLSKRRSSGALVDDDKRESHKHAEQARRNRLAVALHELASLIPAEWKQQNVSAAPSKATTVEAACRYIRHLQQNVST
# Assay: relative binding free energy (BET-seq); higher = weaker binding
# Conditions: reference: library average
row,Sequence,relative binding free energy [kcal/mol]
1,ATTTGCACGTGGTCAG,-0.03
2,TTAGACACGTGTGGGG,0.09
3,GATTACACGTGAGTGT,0.24
4,TATGGCACGTGTGGCC,-0.02
5,TTATACACGTGTATCG,0.07
6,CGGAGCACGTGTCGGG,-0.07
7,AGTTACACGTGAAATG,0.29
8,GATAACACGTGGGGGA,-0.09
9,CATTGCACGTGATGTT,0.05
10,AGTCTCACGTGTATTG,0.1
11,TGGTACACGTGCATGG,0.06
12,TGGGGCACGTGGCATT,0.06
13,TCGTGCACGTGTTTTC,-0.01
14,CGGTGCACGTGATTAT,0.1
15,TCGGCCACGTGTTATG,0.1
16,TTCGGCACGTGATGGT,0.11
17,ATGAGCACGTGTTGAG,-0.03
18,AAGGTCACGTGGTTTG,0.19
19,ACAATCACGTGGTTTG,0.07
20,ATATTCACGTGCTGAT,0.32
21,GTCTGCACGTGTTGGA,0.13
22,TAAGTCACGTGAAGTT,0.26
23,GGGATCACGTGTACGT,0.09
24,TTTTCCACGTGGATGG,0.17
25,GTTAACACGTGACGTG,0.14

row,Sequence,relative binding free energy [kcal/mol]
1,AGCGACACGTGGGGGC,-0.1
2,TGCGACACGTGATGTA,0.2
3,TGTTGCACGTGGATCT,0.01
4,AGTTACACGTGTTTGA,0.18
5,TTTCACACGTGGTTAA,0.12
6,GGTGCCACGTGGGCTG,-0.24
7,AAGTTCACGTGGAAGT,0.31
8,ATGAGCACGTGCGTGT,-0.19
9,TGGAGCACGTGGGTGA,-0.14
10,ATCGTCACGTGGTGGC,0.02
11,GTAATCACGTGGTTGT,0.22
12,TCGGGCACGTGGCGGT,-0.27
13,GGTGTCACGTGGCGCG,0.1
14,TTTGGCACGTGGGCAA,-0.18
15,CGGGACACGTGGACGT,0.08
16,CTAGTCACGTGAAGGG,0.27
17,GATCGCACGTGTATTG,0.15
18,CGGAACACGTGTGGTG,0.08
19,TAGGTCACGTGTGGAT,0.21
20,TTTGTCACGTGGCAGG,-0.09
21,GAAGACACGTGGGGTG,-0.07
22,AGCGTCACGTGAAAGG,0.25
23,CGTATCACGTGAGGTT,0.24
24,GTTGGCACGTGAGGAG,0.11
25,TATTCCACGTGTCTGG,0.27

row,Sequence,relative binding free energy [kcal/mol]
1,GGATACACGTGTAGAG,0.07
2,GGGGTCACGTGTGCTG,0.09
3,TATTGCACGTGGTGGT,-0.13
4,GAGTGCACGTGGGGCC,-0.22
5,GCTTGCACGTGCATGG,0
6,GGGCGCACGTGTGATA,0
7,TTGCTCACGTGGGATA,0.15
8,TGAGTCACGTGCTTGG,0.11
9,GAGGGCACGTGACGTG,0.06
10,TATGGCACGTGCGTAA,-0.08
11,GTTTGCACGTGAGGAA,0.41
12,TTTTCCACGTGGGGGA,-0.06
13,GTGTTCACGTGTAATA,0.42
14,TGCTTCACGTGCTAGT,0.26
15,CGGTTCACGTGTGAAG,0.37
16,ACAATCACGTGGTGGG,0.02
17,AGGCGCACGTGGGAGC,-0.08
18,TGTAACACGTGGGCGC,-0.06
19,CAGGGCACGTGTGGCA,-0.1
20,ACATTCACGTGGGTAG,0.14
21,GGGTGCACGTGTGAGA,0.15
22,TGTGTCACGTGCGGGA,0.07
23,GGTTACACGTGTAGCG,0.21
24,GTGAGCACGTGATAGT,-0.05
25,GACTGCACGTGGGGAT,0

row,Sequence,relative binding free energy [kcal/mol]
1,GGGTGCACGTGGGTCA,-0.23
2,TATTGCACGTGGAGGG,0.08
3,CGTTGCACGTGGGATG,-0.22
4,GGTAGCACGTGGAGGG,-0.09
5,GGTGACACGTGTATGG,0.09
6,TGTCACACGTGATAGT,0.09
7,TGCGACACGTGTGGAG,0.11
8,TTAGTCACGTGGTGTC,-0.05
9,TGGGGCACGTGGACAG,-0.18
10,TAAGTCACGTGAATTA,0.44
11,AAAGGCACGTGAGAGT,0.03
12,GAAGGCACGTGATTGT,0.14
13,TGACACACGTGGAGGT,-0.01
14,AACGGCACGTGGTTTG,0
15,TGGCACACGTGCTGTG,-0.06
16,TGAGACACGTGATTGT,0.07
17,GTGAACACGTGATGTG,0.19
18,GGAAACACGTGGGTAG,-0.06
19,TTATTCACGTGCCGGT,0.14
20,TGGGTCACGTGGAGGT,0.14
21,GCTGTCACGTGTGTGC,0.03
22,GAGGTCACGTGATTTG,0.19
23,TGGTGCACGTGGAATG,-0.03
24,GCTTGCACGTGGAGGG,0
25,GTAGTCACGTGGGTTC,-0.01

row,Sequence,relative binding free energy [kcal/mol]
1,TTGCGCACGTGAGGGG,0.21
2,TGGGTCACGTGACGGT,0.15
3,TGGGACACGTGGCAAG,0.11
4,TAGTACACGTGTTTAA,0.05
5,TGCGTCACGTGTGCTA,0.09
6,TATATCACGTGTGGTA,0.07
7,ACGGGCACGTGGCTGT,-0.14
8,ATGTTCACGTGGGAAA,0.28
9,GATGGCACGTGCGTGA,-0.15
10,AAGATCACGTGGAAGT,0.17
11,CACTTCACGTGTGGTT,0.24
12,TTAGCCACGTGGTAGT,-0.01
13,TGTAGCACGTGAGGTA,0.18
14,ATTTACACGTGGTGAG,0.07
15,GAGCGCACGTGGGTAT,-0.11
16,TTTGGCACGTGGATTC,-0.03
17,CTCGTCACGTGAAGGG,0.13
18,GGTGGCACGTGGTCGT,-0.12
19,CGTTGCACGTGTTTAT,0.15
20,TCAAACACGTGATGGT,0.29
21,TGTGACACGTGTTATC,0.07
22,CTGTACACGTGCGTGT,0.05
23,ATGGTCACGTGGCACG,0
24,TGAACCACGTGGGGGT,-0.16
25,AGGTTCACGTGGTATC,0.21

row,Sequence,relative binding free energy [kcal/mol]
1,CTGGTCACGTGACGTG,0.2
2,GTATGCACGTGAATTA,0.17
3,ATAGACACGTGAGTGA,0.18
4,AAGAGCACGTGAGGGT,0.05
5,TATATCACGTGGATGT,0.1
6,CTTGACACGTGGTGTA,-0.18
7,AGTGGCACGTGTAGAG,-0.04
8,TAGTCCACGTGAGGGG,0.22
9,GCTGTCACGTGTTTGG,0.18
10,GGAGGCACGTGTTCGA,-0.02
11,CTCTGCACGTGGAGGG,0.07
12,AGGTTCACGTGTTCGA,0.26
13,CGTTGCACGTGGATGT,0.02
14,CGGAGCACGTGTGGTC,-0.04
15,TGGAGCACGTGCGCGG,-0.14
16,AGAATCACGTGGGGCT,-0.04
17,AGAAGCACGTGTGTTT,0.06
18,GTGAGCACGTGGATGT,-0.07
19,GGAAACACGTGGGTGT,-0.03
20,GTACACACGTGGGTAG,-0.08
21,TTTAACACGTGGTGTG,-0.1
